{"source": "paper PMC6212790", "note": "This is one part of the list. At the low end of the ranking, values are background and their order means little.", "data": [{"target": "T1, GST-Rok (full length) (UniProt O34857)", "T1 sequence": "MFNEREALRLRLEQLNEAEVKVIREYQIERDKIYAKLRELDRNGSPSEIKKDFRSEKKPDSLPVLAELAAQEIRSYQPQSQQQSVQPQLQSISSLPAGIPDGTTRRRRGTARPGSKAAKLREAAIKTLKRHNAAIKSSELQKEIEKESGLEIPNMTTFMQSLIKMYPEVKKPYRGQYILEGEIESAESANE", "test": "protein binding microarray;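 also: rank score from −0.5 (least bound) to 0.5 (best bound)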", "conditions": "Rok is a gene silencer of Bacillus subtilis; high values mean tight binding; most listed sequences are background and not binding sites; double strand, one strand shown", "units": {"binding signal": "E-score"}, "values": [{"sequence": "ACCTTATG", "binding signal": -0.0134}, {"sequence": "ATAGTAAG", "binding signal": 0.282}, {"sequence": "CTCTGATA", "binding signal": 0.0316}, {"sequence": "CGCTTGTA", "binding signal": 0.0549}, {"sequence": "GGCAAGAC", "binding signal": -0.137}, {"sequence": "GCGCGAGA", "binding signal": 0.0171}, {"sequence": "CGAGAACA", "binding signal": 0.102}, {"sequence": "AACGTTGC", "binding signal": 0.0348}, {"sequence": "ATTTCTAC", "binding signal": 0.408}, {"sequence": "CGTAGTAG", "binding signal": 0.204}, {"sequence": "GATCACCA", "binding signal": 0.00574}, {"sequence": "AGGAACAA", "binding signal": -0.0452}, {"sequence": "ATACTATC", "binding signal": 0.378}, {"sequence": "GTTCACTA", "binding signal": 0.0803}, {"sequence": "AGGCTAAT", "binding signal": -0.155}, {"sequence": "AGTGCAGC", "binding signal": -0.0662}, {"sequence": "AAAAACCT", "binding signal": 0.138}, {"sequence": "GGCGCAAC", "binding signal": -0.209}, {"sequence": "GCCAAATA", "binding signal": 0.101}, {"sequence": "CATATTAG", "binding signal": 0.236}, {"sequence": "ACACTGGG", "binding signal": -0.228}, {"sequence": "CAGAACTC", "binding signal": 0.0708}, {"sequence": "AGTTAGTC", "binding signal": 0.194}, {"sequence": "GTGATAGA", "binding signal": 0.265}, {"sequence": "AGGGTCGC", "binding signal": -0.258}, {"sequence": "ACCAGGTA", "binding signal": -0.0276}, {"sequence": "ATTGCAAA", "binding signal": -0.0471}, {"sequence": "AGGTCTCC", "binding signal": -0.288}, {"sequence": "AATGGCGT", "binding signal": -0.0647}, {"sequence": "GAGCTGAC", "binding signal": -0.206}, {"sequence": "GGCCGCGA", "binding signal": -0.245}, {"sequence": "AGGAGCCG", "binding signal": -0.288}, {"sequence": "CGGTCTGA", "binding signal": -0.189}, {"sequence": "CTGAAGCA", "binding signal": -0.0371}, {"sequence": "CATCAACC", "binding signal": -0.0593}, {"sequence": "ATAAAGCG", "binding signal": -0.0211}, {"sequence": "GAAGATAC", "binding signal": 0.269}, {"sequence": "CTGAACAA", "binding signal": -0.00856}, {"sequence": "AATAGGCC", "binding signal": -0.158}, {"sequence": "ATTGTGGC", "binding signal": 0.00688}, {"sequence": "AGATCTGA", "binding signal": 0.018}, {"sequence": "CTGGGACA", "binding signal": -0.244}, {"sequence": "GTTGTGTA", "binding signal": 0.169}, {"sequence": "AAATTCCA", "binding signal": 0.114}, {"sequence": "GCTACAGC", "binding signal": 0.0848}, {"sequence": "GAGTCAGA", "binding signal": -0.186}, {"sequence": "CAAAGACA", "binding signal": -0.0086}, {"sequence": "CACTTGTA", "binding signal": 0.25}, {"sequence": "CCCAGCAC", "binding signal": -0.363}, {"sequence": "AGGTATCC", "binding signal": 0.0603}, {"sequence": "CCAGCACC", "binding signal": -0.323}, {"sequence": "ACGTGCAC", "binding signal": 0.0174}, {"sequence": "AATCGGGT", "binding signal": 0.0327}, {"sequence": "AACCACAA", "binding signal": 0.00862}, {"sequence": "CATCCCCA", "binding signal": -0.187}, {"sequence": "GGCCCGCA", "binding signal": -0.327}, {"sequence": "CAGGAAAC", "binding signal": -0.00112}, {"sequence": "GGGGTAGA", "binding signal": 0.011}, {"sequence": "CCGTATTA", "binding signal": 0.149}, {"sequence": "AAAATCCC", "binding signal": 0.0234}, {"sequence": "CTCACGAA", "binding signal": -0.0439}, {"sequence": "AGTGAGTG", "binding signal": 0.024}, {"sequence": "GCTGGAAC", "binding signal": -0.0525}, {"sequence": "GTGACGTA", "binding signal": 0.0931}, {"sequence": "CCAGTCTA", "binding signal": -0.0147}, {"sequence": "AACCCCTG", "binding signal": -0.182}, {"sequence": "CATCGAAC", "binding signal": -0.0803}, {"sequence": "GGCCCTTA", "binding signal": -0.342}, {"sequence": "CCGTCGGA", "binding signal": -0.215}, {"sequence": "ACATACCT", "binding signal": 0.264}, {"sequence": "AACTAGTC", "binding signal": 0.206}, {"sequence": "CAGGCGCA", "binding signal": -0.188}, {"sequence": "GGTCGTTA", "binding signal": -0.0111}, {"sequence": "ATACGTGG", "binding signal": 0.0378}, {"sequence": "CAAAACAC", "binding signal": -0.0304}, {"sequence": "CTGCAAGC", "binding signal": -0.184}, {"sequence": "GAAGCCGC", "binding signal": -0.372}, {"sequence": "GTCCGGAA", "binding signal": -0.166}, {"sequence": "ATCGAATG", "binding signal": 0.094}, {"sequence": "CTCTTCAC", "binding signal": -0.113}, {"sequence": "CTATTCCA", "binding signal": 0.165}, {"sequence": "ATGACCGC", "binding signal": -0.193}, {"sequence": "CAACTTCG", "binding signal": -0.00652}, {"sequence": "ATAAAACC", "binding signal": 0.242}, {"sequence": "ACTCGTTC", "binding signal": 0.0843}, {"sequence": "GACTCCAA", "binding signal": -0.0812}, {"sequence": "ACAACAAA", "binding signal": 0.0529}, {"sequence": "GAGTGCGA", "binding signal": -0.104}, {"sequence": "ACCCGGGC", "binding signal": -0.403}, {"sequence": "AACCTTAC", "binding signal": 0.0321}, {"sequence": "GCGATTAA", "binding signal": -0.124}, {"sequence": "GCTACAGA", "binding signal": 0.101}, {"sequence": "CAAGGCAC", "binding signal": -0.288}, {"sequence": "GTGGCAGA", "binding signal": -0.113}, {"sequence": "ACCTGCAA", "binding signal": -0.346}, {"sequence": "CATGCCCA", "binding signal": -0.186}, {"sequence": "CGGTCGAA", "binding signal": -0.0538}, {"sequence": "CGAGTTTA", "binding signal": 0.185}, {"sequence": "CACCCATG", "binding signal": -0.23}, {"sequence": "GAACTGAA", "binding signal": -0.118}, {"sequence": "AATTGATA", "binding signal": 0.253}, {"sequence": "TATCTAAA", "binding signal": 0.287}, {"sequence": "GTGTACAC", "binding signal": -0.0962}, {"sequence": "CGCCGTTC", "binding signal": -0.15}, {"sequence": "ACTGTCCC", "binding signal": -0.17}, {"sequence": "CGTCGTTA", "binding signal": 0.122}, {"sequence": "AACAACCT", "binding signal": -0.198}, {"sequence": "GTCGCTTA", "binding signal": -0.0639}, {"sequence": "GGCAAGAA", "binding signal": -0.0956}, {"sequence": "CGGAGATA", "binding signal": 0.248}, {"sequence": "CTTCTTGC", "binding signal": -0.257}, {"sequence": "CGAGGCGC", "binding signal": -0.268}, {"sequence": "AGGGGAAC", "binding signal": -0.211}, {"sequence": "GTACCCCA", "binding signal": -0.278}, {"sequence": "GTGCCATA", "binding signal": 0.075}, {"sequence": "AATGCTCC", "binding signal": -0.0721}, {"sequence": "ACCTATCG", "binding signal": 0.161}, {"sequence": "AGGCGTGC", "binding signal": -0.13}, {"sequence": "GGCCTCAA", "binding signal": -0.352}, {"sequence": "AACCCGTC", "binding signal": -0.122}, {"sequence": "CTACAATC", "binding signal": 0.214}, {"sequence": "CGCTCCCA", "binding signal": -0.389}, {"sequence": "AGGACGCC", "binding signal": -0.321}, {"sequence": "TACGCGAA", "binding signal": 0.147}, {"sequence": "GAGTAAGC", "binding signal": 0.134}, {"sequence": "AACTCGAG", "binding signal": 0.176}, {"sequence": "CACATATA", "binding signal": 0.261}, {"sequence": "CGTTCTAC", "binding signal": 0.25}, {"sequence": "GGACGAAA", "binding signal": -0.118}, {"sequence": "AGATGGCT", "binding signal": -0.166}, {"sequence": "CGCGCAAG", "binding signal": 0.154}, {"sequence": "GTACCGAC", "binding signal": -0.0213}, {"sequence": "GGCAACGA", "binding signal": -0.0721}, {"sequence": "CACCTTAA", "binding signal": -0.045}, {"sequence": "CTCTACCC", "binding signal": -0.141}, {"sequence": "CGTAGGAG", "binding signal": -0.138}, {"sequence": "ACGTGGCC", "binding signal": -0.276}, {"sequence": "ATCGGAGC", "binding signal": -0.182}, {"sequence": "ATTTACGA", "binding signal": 0.303}, {"sequence": "CGAAGTTA", "binding signal": 0.168}, {"sequence": "AGCTAACA", "binding signal": 0.0607}, {"sequence": "ATTCCAGG", "binding signal": -0.062}, {"sequence": "GATGTGCC", "binding signal": -0.185}, {"sequence": "CTCACACA", "binding signal": 0.0158}, {"sequence": "AAGGTAGA", "binding signal": 0.288}, {"sequence": "CAACACAC", "binding signal": 0.0692}, {"sequence": "GACCCGAC", "binding signal": -0.277}, {"sequence": "AGTGGTCG", "binding signal": -0.261}, {"sequence": "ACCAAGCC", "binding signal": -0.214}, {"sequence": "ATTCATCG", "binding signal": 0.0733}, {"sequence": "AATTGTGT", "binding signal": 0.149}, {"sequence": "ACTTGTCG", "binding signal": -0.143}, {"sequence": "AGATTACC", "binding signal": -0.0495}, {"sequence": "CCCACAAC", "binding signal": -0.247}, {"sequence": "GAGTCTTA", "binding signal": -0.0393}, {"sequence": "GATACTCA", "binding signal": 0.00419}, {"sequence": "GTCGTACA", "binding signal": 0.183}, {"sequence": "CTTCCGAA", "binding signal": -0.0894}, {"sequence": "GTGGACCA", "binding signal": -0.217}, {"sequence": "GGCATAGA", "binding signal": -0.0865}, {"sequence": "CTGTAATC", "binding signal": 0.0182}, {"sequence": "CACGTCCG", "binding signal": -0.302}, {"sequence": "CGACAGCC", "binding signal": 0.0764}, {"sequence": "ACTATCTG", "binding signal": 0.134}, {"sequence": "CCTTGGGC", "binding signal": -0.228}, {"sequence": "AGCTGGTC", "binding signal": -0.13}, {"sequence": "ATCCTAGA", "binding signal": -0.0904}, {"sequence": "AACAGGTG", "binding signal": -0.0105}, {"sequence": "CGAAGACA", "binding signal": -0.193}, {"sequence": "ACCGCGGA", "binding signal": -0.0679}, {"sequence": "GACTTCTA", "binding signal": 0.0634}, {"sequence": "AGTTGCGA", "binding signal": 0.0582}]}]}
